{"source": "patent US20200138970A1", "about": "(Bayer, published 2020)", "key": {"[1]": {"target": "T1, human B7H3 on cancer cell lines (human, UniProt Q5ZPR3 29-534)", "T1 sequence (looked up)": "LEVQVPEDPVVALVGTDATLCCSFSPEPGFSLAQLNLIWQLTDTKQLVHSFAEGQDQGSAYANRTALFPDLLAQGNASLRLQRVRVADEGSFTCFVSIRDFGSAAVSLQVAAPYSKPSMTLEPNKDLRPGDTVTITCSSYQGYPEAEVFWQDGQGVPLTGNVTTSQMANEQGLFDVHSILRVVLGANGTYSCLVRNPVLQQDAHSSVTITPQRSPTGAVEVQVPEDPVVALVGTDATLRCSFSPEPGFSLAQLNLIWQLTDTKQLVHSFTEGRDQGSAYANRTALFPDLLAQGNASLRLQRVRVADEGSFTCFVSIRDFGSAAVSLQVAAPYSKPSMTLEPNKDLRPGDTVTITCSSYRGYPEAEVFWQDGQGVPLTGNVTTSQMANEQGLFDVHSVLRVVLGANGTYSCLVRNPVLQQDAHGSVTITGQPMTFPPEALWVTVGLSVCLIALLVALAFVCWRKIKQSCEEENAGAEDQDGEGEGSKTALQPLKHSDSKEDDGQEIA", "assay": "cell-based or functional assay"}, "[2]": {"target": "T1, human B7H3 on cancer cell lines", "assay": "flow cytometry on U251 MG cells, dose response from 10 ug/mL (1:5 dilution), FITC secondary antibody", "protocol": "(§1) A dose response curve (1:5 dilution) was generated. Following incubation, 200 μL of ice-cold FACS buffer were pipetted in and the cell suspension was centrifuged at 4° C., 400 g for 4 min. The cell pellet was washed with 300 μL of ice-cold FACS buffer prior to resuspending the pellet obtained in 100 μL of FACS buffer and again incubating for 30 min on ice with secondary antibody (monoclonal anti-kappa light chains FITC antibody, Sigma, No. SAB4700605) in a 1:10 dilution. Subsequently, the cells were washed with ice-cold FACS buffer and adjusted to a cell concentration of 0.5×10⁶ cells/mL before carrying out the flow cytometry using a Guava flow cytometer (Millipore). Propidium iodide (final concentration 1 μg/mL) was used for the live staining. With the aid of the background-corrected geometric mean fluorescence values, the IC50 value of the antibody to be investigated was determined."}, "[3]": {"target": "T1, human B7H3 on cancer cell lines", "assay": "flow cytometry on A498 cells, dose response from 10 ug/mL (1:5 dilution), FITC secondary antibody", "protocol": "as §1"}, "[4]": {"target": "T1, human B7H3 on cancer cell lines", "assay": "flow cytometry on U87 MG cells, dose response from 10 ug/mL (1:5 dilution), FITC secondary antibody", "protocol": "as §1"}}, "data": [{"binder": "ADC Example 319-8382 (antibody, human IgG1, lambda, drug-linker from Intermediate F319 on Cys, sites not stated) heavy: EVQLLESGGGLVQPGGSLRLSCAASGFTFSSYAMSWVRQAPGKGLEWVSSISGSGGSTLYADSVKGRFTISRDNSKNTLYLQMNSLRAEDTAVYYCAKLTGTSFDYWGQGTLVTVSS[left out - human IgG1 constant region] light: QSVLTQPPSASGTPGQRVTISCSGSSSNIGSNPVNWYQQLPGTAPKLLIYSNNQRPSGVPDRFSGSKSGTSASLAITGLQSEDEADYYCQSFDSSLKKVFGGGTKLTVLGQPKAAPSVTLFPPSSEELQANKATLVCLISDFYPGAVTVAWKADSSPVKAGVETTTPSKQSNNKYAASSYLSLTPEQWKSHRSYSCQVTHEGSTVEKTVAPTECS", "values": [{"measurement": "U251 CTG (IC50 M)", "setting": "[1]", "value": 1.44, "unit": "nM"}]}, {"binder": "ADC Example 320-8382 (antibody, human IgG1, lambda, drug-linker from Intermediate F320 on Cys, sites not stated) heavy: EVQLLESGGGLVQPGGSLRLSCAASGFTFSSYAMSWVRQAPGKGLEWVSSISGSGGSTLYADSVKGRFTISRDNSKNTLYLQMNSLRAEDTAVYYCAKLTGTSFDYWGQGTLVTVSS[left out - human IgG1 constant region] light: QSVLTQPPSASGTPGQRVTISCSGSSSNIGSNPVNWYQQLPGTAPKLLIYSNNQRPSGVPDRFSGSKSGTSASLAITGLQSEDEADYYCQSFDSSLKKVFGGGTKLTVLGQPKAAPSVTLFPPSSEELQANKATLVCLISDFYPGAVTVAWKADSSPVKAGVETTTPSKQSNNKYAASSYLSLTPEQWKSHRSYSCQVTHEGSTVEKTVAPTECS", "values": [{"measurement": "U251 CTG (IC50 M)", "setting": "[1]", "value": 34.6, "unit": "nM"}]}, {"binder": "ADC Example 321-8382 (antibody, human IgG1, lambda, drug-linker from Intermediate F321 on Cys, sites not stated) heavy: EVQLLESGGGLVQPGGSLRLSCAASGFTFSSYAMSWVRQAPGKGLEWVSSISGSGGSTLYADSVKGRFTISRDNSKNTLYLQMNSLRAEDTAVYYCAKLTGTSFDYWGQGTLVTVSS[left out - human IgG1 constant region] light: QSVLTQPPSASGTPGQRVTISCSGSSSNIGSNPVNWYQQLPGTAPKLLIYSNNQRPSGVPDRFSGSKSGTSASLAITGLQSEDEADYYCQSFDSSLKKVFGGGTKLTVLGQPKAAPSVTLFPPSSEELQANKATLVCLISDFYPGAVTVAWKADSSPVKAGVETTTPSKQSNNKYAASSYLSLTPEQWKSHRSYSCQVTHEGSTVEKTVAPTECS", "values": [{"measurement": "U251 CTG (IC50 M)", "setting": "[1]", "value": 3.9, "unit": "nM"}]}, {"binder": "ADC Example 323-8382 (antibody, human IgG1, lambda, drug-linker from Intermediate F323 on Cys, sites not stated) heavy: EVQLLESGGGLVQPGGSLRLSCAASGFTFSSYAMSWVRQAPGKGLEWVSSISGSGGSTLYADSVKGRFTISRDNSKNTLYLQMNSLRAEDTAVYYCAKLTGTSFDYWGQGTLVTVSS[left out - human IgG1 constant region] light: QSVLTQPPSASGTPGQRVTISCSGSSSNIGSNPVNWYQQLPGTAPKLLIYSNNQRPSGVPDRFSGSKSGTSASLAITGLQSEDEADYYCQSFDSSLKKVFGGGTKLTVLGQPKAAPSVTLFPPSSEELQANKATLVCLISDFYPGAVTVAWKADSSPVKAGVETTTPSKQSNNKYAASSYLSLTPEQWKSHRSYSCQVTHEGSTVEKTVAPTECS", "values": [{"measurement": "NCI-H292 CTG (IC50 M)", "setting": "[1]", "value": 95.5, "unit": "nM"}, {"measurement": "U251 CTG (IC50 M)", "setting": "[1]", "value": 0.802, "unit": "nM"}]}, {"binder": "ADC Example 325-8382 (antibody, human IgG1, lambda, drug-linker from Intermediate F325 on Cys, sites not stated) heavy: EVQLLESGGGLVQPGGSLRLSCAASGFTFSSYAMSWVRQAPGKGLEWVSSISGSGGSTLYADSVKGRFTISRDNSKNTLYLQMNSLRAEDTAVYYCAKLTGTSFDYWGQGTLVTVSS[left out - human IgG1 constant region] light: QSVLTQPPSASGTPGQRVTISCSGSSSNIGSNPVNWYQQLPGTAPKLLIYSNNQRPSGVPDRFSGSKSGTSASLAITGLQSEDEADYYCQSFDSSLKKVFGGGTKLTVLGQPKAAPSVTLFPPSSEELQANKATLVCLISDFYPGAVTVAWKADSSPVKAGVETTTPSKQSNNKYAASSYLSLTPEQWKSHRSYSCQVTHEGSTVEKTVAPTECS", "values": [{"measurement": "U251 CTG (IC50 M)", "setting": "[1]", "value": 0.0644, "unit": "nM"}]}, {"binder": "ADC Example 326-8382 (antibody, human IgG1, lambda, drug-linker from Intermediate F326 on Cys, sites not stated) heavy: EVQLLESGGGLVQPGGSLRLSCAASGFTFSSYAMSWVRQAPGKGLEWVSSISGSGGSTLYADSVKGRFTISRDNSKNTLYLQMNSLRAEDTAVYYCAKLTGTSFDYWGQGTLVTVSS[left out - human IgG1 constant region] light: QSVLTQPPSASGTPGQRVTISCSGSSSNIGSNPVNWYQQLPGTAPKLLIYSNNQRPSGVPDRFSGSKSGTSASLAITGLQSEDEADYYCQSFDSSLKKVFGGGTKLTVLGQPKAAPSVTLFPPSSEELQANKATLVCLISDFYPGAVTVAWKADSSPVKAGVETTTPSKQSNNKYAASSYLSLTPEQWKSHRSYSCQVTHEGSTVEKTVAPTECS", "values": [{"measurement": "U251 CTG (IC50 M)", "setting": "[1]", "value": 6.66, "unit": "nM"}]}, {"binder": "TPP-8382 (antibody, human IgG1, lambda) heavy: EVQLLESGGGLVQPGGSLRLSCAASGFTFSSYAMSWVRQAPGKGLEWVSSISGSGGSTLYADSVKGRFTISRDNSKNTLYLQMNSLRAEDTAVYYCAKLTGTSFDYWGQGTLVTVSS[left out - human IgG1 constant region] light: QSVLTQPPSASGTPGQRVTISCSGSSSNIGSNPVNWYQQLPGTAPKLLIYSNNQRPSGVPDRFSGSKSGTSASLAITGLQSEDEADYYCQSFDSSLKKVFGGGTKLTVLGQPKAAPSVTLFPPSSEELQANKATLVCLISDFYPGAVTVAWKADSSPVKAGVETTTPSKQSNNKYAASSYLSLTPEQWKSHRSYSCQVTHEGSTVEKTVAPTECS", "values": [{"measurement": "EC50", "setting": "[2]", "value": 1.42, "unit": "nM"}, {"measurement": "EC50", "setting": "[3]", "value": 1.03, "unit": "nM"}, {"measurement": "EC50", "setting": "[4]", "value": 2.15, "unit": "nM"}]}, {"binder": "TPP-7611 (antibody, human IgG1, lambda) heavy: EVQLLESGGGLVQPGGSLRLSCAASGFTFRSYAMSWVRQAPGKGLEWVSSVSGSGGSALYADSVKGRFTISRDNSKNTLYLQMNSLRAEDTAVYYCTRLTGTSFDYWGQGTLVTVSS[left out - human IgG1 constant region with changes] light: QSVLTQPPSASGTPGQRVTISCSGSSSNIGSNPVNWYQQLPGTAPKLLIYGNSNRPSGVPDRFSGSKSGTSASLAISGLRSEDEADYYCQSFDSSLKKVFGGGTKLTVLGQPKAAPSVTLFPPSSEELQANKATLVCLISDFYPGAVTVAWKADSSPVKAGVETTTPSKQSNNKYAASSYLSLTPEQWKSHRSYSCQVTHEGSTVEKTVAPTECS", "values": [{"measurement": "EC50", "setting": "[3]", "value": 0.599, "unit": "nM"}]}, {"binder": "TPP-8322 (antibody, human IgG1, lambda) heavy: EVQLLESGGGLVQPGGSLRLSCAASGFTFSSYGMHWVRQAPGKGLEWVSAISGSGGSTYYADSVKGRFTISRDNSKNTLYLQMNSLRAEDTAVYYCARGYYYYGMDVWGQGTLVTVSS[left out - human IgG1 constant region] light: QSVLTQPPSASGTPGQRVTISCSGGSSNIGSNPVNWYQQLPGTAPKLLIYGNSKRPSGVPDRFSGSKSGTSASLAISGLRSEDEADYYCQSYDSSLSGWVFGGGTKLTVLGQPKAAPSVTLFPPSSEELQANKATLVCLISDFYPGAVTVAWKADSSPVKAGVETTTPSKQSNNKYAASSYLSLTPEQWKSHRSYSCQVTHEGSTVEKTVAPTECS", "values": [{"measurement": "EC50", "setting": "[3]", "value": 1.02, "unit": "nM"}, {"measurement": "EC50", "setting": "[4]", "value": 0.887, "unit": "nM"}]}, {"binder": "TPP-8748 (antibody, human IgG1, lambda) heavy: EVQLLESGGGLVQPGGSLRLSCAASGFTFSSYGMHWVRQAPGKGLEWVSAISGSGGSTYYADSVKGRFTISRDNSKNTLYLQMNSLRAEDTAVYYCARGYYYYGMDVWGQGTLVTVSS[left out - human IgG1 constant region] light: QSVLTQPPSASGTPGQRVTISCSGGSSNIGSNPVNWYQQLPGTAPKLLIYGNNKRPSGVPDRFSGSKSGTSASLAISGLRSEDEADYYCQSYDSSLSGWVFGGGTKLTVLGQPKAAPSVTLFPPSSEELQANKATLVCLISDFYPGAVTVAWKADSSPVKAGVETTTPSKQSNNKYAASSYLSLTPEQWKSHRSYSCQVTHEGSTVEKTVAPTECS", "values": [{"measurement": "EC50", "setting": "[2]", "value": 0.783, "unit": "nM"}, {"measurement": "EC50", "setting": "[3]", "value": 1.67, "unit": "nM"}]}, {"binder": "TPP-8750 (antibody, human IgG1, lambda) heavy: EVQLLESGGGLVQPGGSLRLSCAASGFTFSSYGMHWVRQAPGKGLEWVSAISGSGGSTYYADSVKGRFTISRDNSKNTLYLQMNSLRAEDTAVYYCARGYYYYGMDVWGQGTLVTVSS[left out - human IgG1 constant region with changes] light: QSVLTQPPSASGTPGQRVTISCSGGSSNIGSNPVNWYQQLPGTAPKLLIYGNNKRPSGVPDRFSGSKSGTSASLAISGLRSEDEADYYCQSYDSSLSGWVFGGGTKLTVLGQPKAAPSVTLFPPSSEELQANKATLVCLISDFYPGAVTVAWKADSSPVKAGVETTTPSKQSNNKYAASSYLSLTPEQWKSHRSYSCQVTHEGSTVEKTVAPTECS", "values": [{"measurement": "EC50", "setting": "[2]", "value": 0.707, "unit": "nM"}, {"measurement": "EC50", "setting": "[3]", "value": 0.855, "unit": "nM"}]}]}
